Experimental data as given in US20230121313A1 (priority 2019, published 2023).

Tested on: subjects with MDD at imminent risk for suicide
Conditions: in vivo; ESKETINSUI2001; 84 mg; double-blind phase

## CN[C@]1(c2ccccc2Cl)CCCCC1=O [esketamine, (S)-2-(2-chlorophenyl)-2-(methylamino)cyclohexanone]
  Subjects with a serious treatment-emergent adverse event: Four
